From PubChem BioAssay AID1240 (Sanford-Burnham Center for Chemical Genomics, 2008)
Out of some 50,000 compounds screened, about 800 (1.6%) showed an effect of 50% or more. The list shows a part of the results.

Target: Bcl-2-like protein 10 (Homo sapiens) (UniProt Q9HD36)
Experiment: TR3 peptide-Bcl-B binding displacers, biochemical primary FP assay, phenotype converters (AID 1240);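 note: 0% = Bcl-B with tracer peptide and DMSO and 100% = tracer peptide lacking Bcl-B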
Settings: GST-Bcl-B / FITC-TR3 peptide fluorescence polarization; stronger effect = higher value; compound at 3.75 mg/L

Chain of UniProt Q9HD36 (Q9HD36 whole entry, looked up): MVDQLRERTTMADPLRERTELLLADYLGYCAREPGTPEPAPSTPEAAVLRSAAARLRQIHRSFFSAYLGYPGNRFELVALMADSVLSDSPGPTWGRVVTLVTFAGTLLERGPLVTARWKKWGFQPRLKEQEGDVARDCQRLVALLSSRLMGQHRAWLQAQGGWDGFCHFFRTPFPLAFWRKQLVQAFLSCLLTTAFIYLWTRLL

SMILES	displacement
Cc1onc(-c2ccccc2Cl)c1C(=O)Nc1ccccc1C(=O)O	-0.2%
CC(C)(C)C(=O)CC(O)(c1ccccc1)C(F)(F)C(F)F (configuration not stated)	-8%
O=C(Nc1nc2c(s1)C(=O)CCC2)c1ccccc1	-14.8%
O=C(COc1ccc(Cl)cc1)NCCCn1ccnc1	14.5%
COc1ccc(-c2cc(C(=O)N3CCCC3)c3ccccc3n2)cc1OC	27.6%
CCC(C)c1c(O)nc(SCC(=O)c2ccccc2)[nH]c1=O (configuration not stated)	10.8%
CC1=C(C(=O)OCc2ccccc2)C(c2ccccc2I)C2=C(CCCC2=O)N1 (configuration not stated)	-6%
O=C(/C=C/c1ccco1)Nc1ccc(N2CCOCC2)cc1	-4%
COc1cccc(-c2nc3sc(C)c(C)c3c(=O)[nH]2)c1	-10.8%
CC(C)C(=O)Nc1nnc(Cc2nnc(NC(=O)C(C)C)s2)s1	4.2%
O=C1N=c2ccc(Cl)cc2=C1c1sc(NS(=O)(=O)Cc2ccccc2)nc1O	-7.2%
O=C(O)c1cc(-c2ccc3c(c2)OCO3)nc2ccc(Br)cc12	-14.6%
O=C(O)C1C2C=CC(O2)C1C(=O)Nc1ccc(F)c(Cl)c1 (configuration not stated)	2.5%
N/C(=N\OC(=O)/C=C/c1ccccc1)c1ccccc1	-9%
O=C(COc1ccc(Br)cc1)Nc1ccc(-c2nc3ccccc3s2)cc1	0.5%
CCOc1ccc(/C=C2/C(=O)NC(=O)N(c3ccc(OCC)cc3)C2=O)cc1	6.5%
O=C(N/N=C/c1ccc(F)c(Br)c1)c1cccc(Br)c1	7.3%
O=C(CCN1C(=O)c2cccc3cccc(c23)C1=O)OC/C=C/c1ccccc1	7.5%
CCOc1cc(/C=C/C(=O)O)cc(I)c1OCC	12.7%
Cc1ccc(N2C(=O)CC(N3CCSCC3)C2=O)cc1 (configuration not stated)	-1.3%
C/C(Nc1cccc(C)n1)=C(\C#N)C(N)=O	-3.3%
Cc1cc(/C=C2\C(=O)NC(=S)N(c3ccc(Cl)cc3)C2=O)c(C)n1-c1cccnc1	6.5%
Cc1ccc(N(CC(=O)Nc2ccccc2Br)S(=O)(=O)c2ccc(F)cc2)cc1	10.7%

SMILES	displacement
Cc1onc(-c2ccccc2)c1C(=O)Nc1ccc(N(C)C)cc1	8.8%
CC(C)(C(=O)O)c1ccc([N+](=O)[O-])cc1	-7.4%
COC(=O)c1ccc(C2C(C(=O)OCCc3ccccc3)=C(C)NC3=C2C(=O)CCC3)cc1 (configuration not stated)	-6.6%
CC(NC(=O)c1ccccc1NC(=O)c1cccnc1)c1ccccc1 (configuration not stated)	13.1%
CSc1nc(C)c(C(C)=O)cc1C#N	-4.5%
COc1ccc(Nc2nc(C)cc(C)c2C(N)=O)cc1	-2.7%
COc1cc(/C=C(/C#N)C(=O)Nc2cccc(Br)c2)cc(Cl)c1O	-52.5%
CCOC(=O)C1(C)C=C(Nc2ccc(Cl)cc2)C(=O)N1c1ccc(Cl)cc1 (configuration not stated)	-1.7%
CCc1c(C)sc(NC(=O)c2ccc(OC)cc2)c1C(N)=O	-0.6%
Cc1cccc(C(=O)N2CCN(C)CC2)c1	-5.3%
CCc1ccc(NC(=O)c2cccc3ccccc23)cc1	2.4%
C=C/C(=C\C=C(/C)F)NC(=O)/C(C#N)=C\c1cc(Cl)cc(Cl)c1Cl	-8%
O=C1C(=O)N(c2ccccn2)C(c2cccnc2)/C1=C(/O)c1cccc(Br)c1 (configuration not stated)	-16.6%
COc1cccc(/C=C2\SC(=O)N(CCC(=O)Nc3c(C)n(C)n(-c4ccccc4)c3=O)C2=O)c1	3.1%
O=C(CSc1nc2ccccc2o1)c1ccc(-c2ccccc2)cc1	17.5%
Cc1c(C(=O)Nc2ccc(-c3nc4cc(Cl)ccc4o3)cc2)cccc1[N+](=O)[O-]	-13.9%
CC1CCN(C(=O)/C(=C\c2ccco2)NC(=O)c2ccccc2)CC1	15.6%
C=CCc1cc(/C=C2\C(=O)NC(=S)N(c3cccc(Br)c3)C2=O)cc(OC)c1O	0%
CC(C)(C)C(=O)COc1ccc2ccc(=O)oc2c1	10.3%
O=C1N=C(N2CCOCC2)S/C1=C\c1ccc(O)cc1	-25.5%
Cc1ccc(N2C(=O)C(O)C(O)C2=O)cc1 (configuration not stated)	-7.8%
Cc1no[n+]([O-])c1COc1ccccc1C=C1C(=O)NC(=S)NC1=O	10.8%
Cc1ccc(/C=C/C(=O)Nc2cccc3ncccc23)o1	27.1%

SMILES	displacement
O=C(CSc1nc2ccccc2o1)c1ccc2c(c1)Cc1ccccc1-2	12.1%
COc1ccc(NC(=O)c2ccc(Br)o2)c(OC)c1	-1.7%
COc1cc(NC(=O)c2cccc(Br)c2)c(C(=O)O)cc1OC	-2.9%
CCOc1cccc(C(=O)Nc2ccc(C(=O)Nc3cccc(-c4nc5ccccc5o4)c3)cc2)c1	0.7%
Oc1c(Br)cc(Br)cc1C=Nc1ccc(Cl)c2cccnc12	-2.5%
Cc1ccc2nsnc2c1NC(=O)c1ccc(-c2ccccc2)cc1	1.4%
O=C1C2C3C=CC(C3)C2C(=O)N1CNc1ccccc1 (configuration not stated)	-11.3%
C1CN(CC2CSC(=NC34CC5CC(CC(C5)C3)C4)O2)CCO1 (configuration not stated)	-13%
CCOCCOC(=O)C1=C(C)NC2=C(C(=O)CCC2)C1c1cc(Br)c(O)c(OCC)c1 (configuration not stated)	2%
CCc1ccccc1NC1=C(Cl)C(=O)N(c2ccc(Br)cc2)C1=O	-3.9%
Cc1cccc(OCc2nc(-c3ccccn3)no2)c1	7.8%
COc1ccc(/C=C/C(=O)NCC2(c3ccccc3)CCOCC2)cc1OC	-8.4%
Cc1nn(-c2ccccc2)c2c1C(c1ccccc1)C(C#N)=C(N)O2 (configuration not stated)	7.2%
O=C(CSc1nnc(-c2ccccc2)n1-c1ccccc1)N/N=C/c1ccccc1[N+](=O)[O-]	-9.6%
CC1=C(C(=O)Nc2cc(Cl)ccc2C)C(c2cccc(Br)c2)NC(=S)N1 (configuration not stated)	14.6%
Oc1c(Br)cc(Br)cc1C=Nc1ccc(Br)c2cccnc12	17.7%
Cc1ccc2c(Cl)c(C(=O)NCc3ccco3)sc2c1	-6.3%
CCOc1ccc(C=C2C(=O)NC(=O)NC2=O)cc1Cl	7.5%
CCc1ccccc1NC(=O)c1cc(Cl)ccc1OC	-7.7%
COc1ccc(/C=C2\C(=O)NC(=S)N(c3cccc(Br)c3)C2=O)cc1	18.9%
Cc1ccc(N=Cc2ccc(Br)s2)cc1[N+](=O)[O-]	-3.5%
N#Cc1ccccc1NC(=O)C(Cc1ccc([N+](=O)[O-])cc1)N1C(=O)c2ccccc2C1=O (configuration not stated)	6.1%
CCc1nnc(NS(=O)(=O)c2ccc(N/C=C\C(=O)c3ccc4c(c3)OCO4)cc2)s1	30.8%

SMILES	displacement
COc1ccccc1C(=O)NNC(=O)COc1ccc(Cl)cc1Br	-3.1%
Cc1cccc(OCC(=O)NC2CCCCCC2)c1	7.8%
C=CCn1c(SCC(=O)N(CCO)CCO)nc2sc3c(c2c1=O)CCC3	24%
Cc1ccc(C(=O)Nc2ccccc2CO)cc1[N+](=O)[O-]	-3.9%
Oc1[nH]c2ccc(F)cc2c1N=Nc1ccccn1	44.5%
CCc1ccc(-n2c(C)cc(/C=C3/NC(=S)NC3=O)c2C)cc1	2.1%
COc1cccc(CN2CCN(C3CCCC(C)C3)CC2)c1OC (configuration not stated)	-15.9%
O=C1c2cccc([N+](=O)[O-])c2C(=O)N1c1nc(-c2ccccc2)cs1	12.4%
CC(=O)c1cccc(NC(=O)COc2ccc(Br)cc2C(C)(C)C)c1	-1.2%
Cc1ccc(C(C)C)c(OCCOc2ccc(/C=N/n3cnnc3)cc2)c1	-14.8%
Cc1ccc(C(=O)NCC2CCCO2)cc1 (configuration not stated)	-8%
O=c1c(Oc2ccccc2Br)c(C(F)(F)F)oc2c(CN3CCOCC3)c(O)ccc12	-1.2%
COC(=O)C1=C(C)N=c2s/c(=C\c3ccc(O)cc3)c(=O)n2C1c1ccccc1 (configuration not stated)	10%
Clc1ccccc1-c1nnc(-c2ccc(-c3ccccc3)cc2)o1	5.2%
CCc1ccc(N2NC(=O)CC2=O)cc1	25.9%
O=S(Cc1ccccc1)CC(O)COc1ccccc1 (configuration not stated)	-0.9%
COc1cccc(NC2=NS(=O)(=O)c3ccccc32)c1	-5.9%
CN(C)CCNCCP(=O)(c1ccccc1)c1ccccc1	0.3%
O=S(=O)(NCc1ccc(F)cc1)c1ccc2ccccc2c1	15%
Cn1c2c(c(=O)n(C)c1=O)C(c1ccc([N+](=O)[O-])o1)C1=C(N2)c2ccccc2C1=O (configuration not stated)	-5.4%
O=C(O)c1ccc(Oc2ccc(-c3ccc(Oc4ccc(C(=O)O)c(C(=O)O)c4)cc3)cc2)cc1C(=O)O	-1.9%
O=[N+]([O-])c1cc(F)c(N2CCOCC2)cc1N1CCCCC1	13.3%
COC(=O)c1c(C)nc2n(Cc3ccccc3Cl)c3ccccc3n12	-13.1%

SMILES	displacement
COc1cc(C(=O)Nc2ccc3oc(-c4ccc(C)cc4C)nc3c2)cc(OC)c1OC	-2.6%
Cc1c(-c2ccccc2)[nH]n2c(=O)cc(-c3ccccc3)nc12	4.9%
COc1cc(/C=C2\SC(=S)NC2=O)cc(Br)c1OCc1c(C)no[n+]1[O-]	-22.2%
CCCCc1c(C)nc(N/N=C/c2cccc(OC)c2O)[nH]c1=O	0.1%
COc1nnc(-c2ccc(Cl)cc2)c2ccccc12	2.1%
Cc1c(Cl)cccc1NC(=O)C(=O)NCCCN1CCOCC1	-13%
CCN(Cc1ccccc1)S(=O)(=O)c1c(C)cc(C)cc1C	-4.8%
O=C1/C(=C/C2CC=CCC2)SC(=S)N1C1CCS(=O)(=O)C1 (configuration not stated)	9.6%
O=C(O)CCCNC(=O)c1cncc(Br)c1	18.8%
COC(=O)c1ccc(C2Nc3cc(C)c(C)cc3NC3=C2C(=O)CC(C)(C)C3)cc1 (configuration not stated)	-1.2%
COc1ccc(C2=CC(=O)C=CC2=O)cc1	40.7%
O=S(=O)(Nc1ccccc1C(F)(F)F)c1ccccc1	1.6%
CC1CCC(N2CCN(Cc3cccnc3)CC2)CC1 (configuration not stated)	2.5%
Cc1ccc2oc(C(=O)Nc3ccc([N+](=O)[O-])cc3Cl)c(C)c2c1	3.4%
O=C(NCCc1ccccc1)C(=O)NCc1ccc2c(c1)OCO2	3.2%
CCCCOCP(=O)(c1ccccc1)c1ccccc1	1.1%
Cc1ccc(C)c(Nc2nc3c(s2)CCCC3)c1	-6.3%
CCOC(=O)c1[nH]cnc1C(=O)Nc1ccccn1	13.8%
N#Cc1cc([N+](=O)[O-])ccc1N=Cc1ccc(C#Cc2ccccc2)cc1	4.4%
CCCOc1nc2ccccc2nc1NS(=O)(=O)c1ccccc1	13.9%
